Measurements taken from the supplement of paper PMC10037445.
“And” between values parts separate entries of the source, which are not always exact repeats. Equal values may be shown once. In all, about 2,900 compounds were measured (“IRF Lucia reporter activity, fold change vs agonist alone”: median about 0.9, highest 2% from about 2.8 on). Some of the results follow.

Columns and labels:
RAW-Dual [1] = test: IRF Lucia reporter activity, fold change vs agonist alone; higher = enhanced IRF activity; details: library stock concentration (final ~1000-fold dilution): 10 mM, agonist: MPLA (TLR4) […]
Procedure, shortened: (§1)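 RAW-Dual macrophages were seeded in DMEM at 50,000 cells/well in 384-well plates, given 50 nL of library stock by pin tool, and given a PRR agonist 1 h later. Plates were held at 37 °C, 5% CO2 for 20 hours, after which supernatant was read for IRF by QuantiLuc luminescence and for NF-κB by QuantiBlue absorbance at 620 nm. Reporter activity is expressed as fold change over wells that received agonist alone. A well was called cytotoxic when IncuCyte confluency fell below 70% of agonist controls in both mask sets.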

RAW-Dual [2] = test: IRF Lucia reporter activity, fold change vs agonist alone; cytotoxicity flag (confluency mask): not cytotoxic; higher = enhanced IRF activity
Procedure, shortened: as §1

RAW-Dual [3] = test: IRF Lucia reporter activity, fold change vs agonist alone; cytotoxicity flag (confluency mask): cytotoxic (confluency <70% of control); higher = enhanced IRF activity
Procedure, shortened: as §1

[4] = cytotoxicity flag (confluency mask): not cytotoxic
[5] = agonist: 3'3'-cGAMP (STING) 10 ug/mL

With `Cc1c[nH]c(-c2cnc(NCCNc3ccc(C#N)cn3)nc2-c2ccc(Cl)cc2Cl)n1.Cl` as the molecule, how does the “IRF Lucia reporter activity” value (RAW-Dual [1]; [4]) read?
Its value is 0.336.

With `O=C1OC(=O)C2C3CCC(O3)C12` (configuration not stated) (library stock concentration (final ~1000-fold dilution): 10 mM) as the molecule, how does the “IRF Lucia reporter activity” value (RAW-Dual [2]; [5]) read?
The value was 1.33.

And the “IRF Lucia reporter activity” value (RAW-Dual [2]; agonist: LPS (TLR4) 0.1 ug/mL)?
Its value is 1.72.

With `O=C1OC(=O)C2C3CCC(O3)C12` (configuration not stated) as the molecule, how does the “IRF Lucia reporter activity” value (RAW-Dual [1]; [4]) read?
The value was 1.18.

Which “IRF Lucia reporter activity” value (RAW-Dual [2]; [5]) does the source give for `CCOC(=O)n1ccn(C)c1=S` (library stock concentration (final ~1000-fold dilution): 10 mM) here?
Its value is 1.09.

And the “IRF Lucia reporter activity” value (RAW-Dual [2]; agonist: LPS (TLR4) 0.1 ug/mL)?
The value was 1.23.

For `CCOC(=O)n1ccn(C)c1=S`, which “IRF Lucia reporter activity” value (RAW-Dual [1]; [4]) is on record?
Its value is 1.07.

With `CC(C)=CCCC(C)(OC1OC(CO)C(O)C(O)C1O)C1CCC2(C)C1C(O)CC1C3(C)CCC(OC4OC(CO)C(O)C(O)C4OC4OC(CO)C(O)C(O)C4O)C(C)(C)C3CCC12C` (configuration not stated) (library stock concentration (final ~1000-fold dilution): 10 mM) as the molecule, how does the “IRF Lucia reporter activity” value (RAW-Dual [2]; [5]) read?
Its value is 1.09.

And the “IRF Lucia reporter activity” value (RAW-Dual [2]; agonist: LPS (TLR4) 0.1 ug/mL)?
The value was 1.39.

With `CC(C)=CCCC(C)(OC1OC(CO)C(O)C(O)C1O)C1CCC2(C)C1C(O)CC1C3(C)CCC(OC4OC(CO)C(O)C(O)C4OC4OC(CO)C(O)C(O)C4O)C(C)(C)C3CCC12C` (configuration not stated) as the molecule, how does the “IRF Lucia reporter activity” value (RAW-Dual [1]; [4]) read?
The value was 1.14.

Which “IRF Lucia reporter activity” value (RAW-Dual [3]; [5]) does the source give for `COc1cc(N2CCC(N)CC2)ccc1Nc1ncc(Cl)c(-c2c[nH]c3ccccc23)n1` (library stock concentration (final ~1000-fold dilution): 10 mM) here?
The value was 0.0212.

What about the “IRF Lucia reporter activity” value (RAW-Dual [3]; agonist: LPS (TLR4) 0.1 ug/mL) of the same molecule?
Its value is 0.0182.

For `COc1cc(N2CCC(N)CC2)ccc1Nc1ncc(Cl)c(-c2c[nH]c3ccccc23)n1`, which “IRF Lucia reporter activity” value (RAW-Dual [1]; cytotoxicity flag (confluency mask): cytotoxic (confluency <70% of control)) is on record?
The value was 0.0216.

`Cl.O=C(c1ccc(OCCN2CCCCC2)cc1)c1c(-c2ccc(O)cc2)sc2cc(O)ccc12` (library stock concentration (final ~1000-fold dilution): 10 mM) was tested. Which “IRF Lucia reporter activity” value (RAW-Dual [2]; [5]) did it give?
Its value is 0.779.

What about the “IRF Lucia reporter activity” value (RAW-Dual [2]; agonist: LPS (TLR4) 0.1 ug/mL) of the same molecule?
Its value is 0.326.

Which “IRF Lucia reporter activity” value (RAW-Dual [1]; [4]) does the source give for `Cl.O=C(c1ccc(OCCN2CCCCC2)cc1)c1c(-c2ccc(O)cc2)sc2cc(O)ccc12` here?
The value was 0.813.

`CC(C)N1CCN(Cc2cnc(-c3cc(-c4cccc5[nH]ccc45)cc4[nH]ncc34)o2)CC1` (library stock concentration (final ~1000-fold dilution): 10 mM) was tested. Which “IRF Lucia reporter activity” value (RAW-Dual [2]; [5]) did it give?
Its value is 0.609.

And the “IRF Lucia reporter activity” value (RAW-Dual [2]; agonist: LPS (TLR4) 0.1 ug/mL)?
The value was 1.42.

Which results are given for `CC(C)(OC1OC(CO)C(O)C(O)C1O)C1Cc2cc3ccc(=O)oc3cc2O1` (configuration not stated) (library stock concentration (final ~1000-fold dilution): 10 mM)?
IRF Lucia reporter activity (RAW-Dual [2]; [5]): 1.05; IRF Lucia reporter activity (RAW-Dual [2]; agonist: LPS (TLR4) 0.1 ug/mL): 1.16

How did the “IRF Lucia reporter activity” value (RAW-Dual [2]; [5]) turn out when `CN1C(=O)C(NC(=O)c2cc(Cc3ccccc3)on2)COc2ccccc21` (configuration not stated) (library stock concentration (final ~1000-fold dilution): 10 mM) was run?
The value was 0.896.

What about the “IRF Lucia reporter activity” value (RAW-Dual [2]; agonist: LPS (TLR4) 0.1 ug/mL) of the same molecule?
The value was 1.38.

`Cc1ccccc1OCC(O)CO` (configuration not stated) was tested. Which “IRF Lucia reporter activity” value (RAW-Dual [1]; [4]) did it give?
Its value is 1.13.

For `Cc1ccccc1OCC(O)CO` (configuration not stated) (library stock concentration (final ~1000-fold dilution): 10 mM), which “IRF Lucia reporter activity” value (RAW-Dual [2]; [5]) is on record?
Its value is 1.01.

And the “IRF Lucia reporter activity” value (RAW-Dual [2]; agonist: LPS (TLR4) 0.1 ug/mL)?
Its value is 1.42.

Which results are given for `O=C1CN(/N=C/c2ccc([N+](=O)[O-])o2)C(=O)N1` (library stock concentration (final ~1000-fold dilution): 10 mM)?
IRF Lucia reporter activity (RAW-Dual [2]; [5]): 1.06; IRF Lucia reporter activity (RAW-Dual [2]; agonist: LPS (TLR4) 0.1 ug/mL): 1.13

With `O=C1CN(/N=C/c2ccc([N+](=O)[O-])o2)C(=O)N1` as the molecule, how does the “IRF Lucia reporter activity” value (RAW-Dual [1]; [4]) read?
The value was 1.1.

`O=C(O)c1cc(=O)cc(C(=O)O)o1` (library stock concentration (final ~1000-fold dilution): 10 mM) was tested. Which “IRF Lucia reporter activity” value (RAW-Dual [2]; [5]) did it give?
Its value is 1.03 and 1.14.

And the “IRF Lucia reporter activity” value (RAW-Dual [2]; agonist: LPS (TLR4) 0.1 ug/mL)?
The value was 0.827 and 1.01.

For `O=C(O)c1cc(=O)cc(C(=O)O)o1`, which “IRF Lucia reporter activity” value (RAW-Dual [1]; [4]) is on record?
The value was 1.04.

What does the source list for `COc1cc(CCC(O)CC(O)CCc2ccc(O)c(OC)c2)ccc1O` (configuration not stated) (library stock concentration (final ~1000-fold dilution): 10 mM)?
IRF Lucia reporter activity (RAW-Dual [2]; [5]): 0.889; IRF Lucia reporter activity (RAW-Dual [2]; agonist: LPS (TLR4) 0.1 ug/mL): 1.15

`CN(C)CCOC(C)(c1ccccc1)c1ccccn1.O=C(O)CCC(=O)O` (configuration not stated) was tested. Which “IRF Lucia reporter activity” value (RAW-Dual [1]; [4]) did it give?
Its value is 1.17.

Which results are given for `CN(C)CCOC(C)(c1ccccc1)c1ccccn1.O=C(O)CCC(=O)O` (configuration not stated) (library stock concentration (final ~1000-fold dilution): 10 mM)?
IRF Lucia reporter activity (RAW-Dual [2]; [5]): 1.04; IRF Lucia reporter activity (RAW-Dual [2]; agonist: LPS (TLR4) 0.1 ug/mL): 1.25

With `Cl.Nc1ccn(C2OC(CO)C(O)C2O)c(=O)n1` (configuration not stated) as the molecule, how does the “IRF Lucia reporter activity” value (RAW-Dual [1]; [4]) read?
Its value is 1.

Which “IRF Lucia reporter activity” value (RAW-Dual [2]; [5]) does the source give for `Cl.Nc1ccn(C2OC(CO)C(O)C2O)c(=O)n1` (configuration not stated) (library stock concentration (final ~1000-fold dilution): 10 mM) here?
Its value is 0.726.

And the “IRF Lucia reporter activity” value (RAW-Dual [2]; agonist: LPS (TLR4) 0.1 ug/mL)?
Its value is 0.906.

For `C/C(=C(\CCOP(=O)(O)O)SC(=O)c1ccccc1)N(C=O)Cc1cnc(C)nc1N` (library stock concentration (final ~1000-fold dilution): 10 mM), which “IRF Lucia reporter activity” value (RAW-Dual [2]; [5]) is on record?
Its value is 1.02.

And the “IRF Lucia reporter activity” value (RAW-Dual [2]; agonist: LPS (TLR4) 0.1 ug/mL)?
The value was 1.21.

`COc1ccc(C(=O)O)cc1O` was tested. Which “IRF Lucia reporter activity” value (RAW-Dual [1]; [4]) did it give?
Its value is 0.98.

How did the “IRF Lucia reporter activity” value (RAW-Dual [2]; [5]) turn out when `COc1ccc(C(=O)O)cc1O` (library stock concentration (final ~1000-fold dilution): 10 mM) was run?
Its value is 1.01.

And the “IRF Lucia reporter activity” value (RAW-Dual [2]; agonist: LPS (TLR4) 0.1 ug/mL)?
The value was 1.22.

How did the “IRF Lucia reporter activity” value (RAW-Dual [2]; [5]) turn out when `CCN(CC)C(=S)SSC(=S)N(CC)CC` (library stock concentration (final ~1000-fold dilution): 10 mM) was run?
Its value is 1.58.

What about the “IRF Lucia reporter activity” value (RAW-Dual [2]; agonist: LPS (TLR4) 0.1 ug/mL) of the same molecule?
The value was 0.937.

`CCN(CC)C(=S)SSC(=S)N(CC)CC` was tested. Which “IRF Lucia reporter activity” value (RAW-Dual [1]; [4]) did it give?
The value was 0.279.
